In PubChem BioAssay AID1240 (Sanford-Burnham Center for Chemical Genomics, 2008):
Screen size: about 50,000 compounds; about 800 (1.6%) showed an effect of 50% or more. Some of the results follow.

molecular target: Bcl-2-like protein 10 (Homo sapiens) (UniProt Q9HD36); experiment: Phenotype converters, Bcl-B/TR3 peptide binding displacement, primary biochemical FP (AID 1240); settings: GST-Bcl-B / FITC-TR3 peptide fluorescence polarization; stronger effect = higher value; compound at 3.75 mg/L;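 further: 0% = Bcl-B with tracer peptide and DMSO and 100% = tracer peptide lacking Bcl-B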
Sequence of UniProt Q9HD36 (Q9HD36 whole entry, looked up): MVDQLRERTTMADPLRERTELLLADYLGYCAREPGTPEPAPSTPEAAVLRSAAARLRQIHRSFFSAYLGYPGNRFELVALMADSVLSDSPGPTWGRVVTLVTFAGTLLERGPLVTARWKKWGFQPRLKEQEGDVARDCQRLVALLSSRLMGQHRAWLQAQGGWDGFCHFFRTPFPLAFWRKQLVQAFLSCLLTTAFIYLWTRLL

Structure (SMILES)	displacement [%]
O=c1cc(N2CCOCC2)c2ccccc2s1	-5.1
CCC(CC)C(=O)Nc1nc2ccc(Cl)cc2s1	-3.2
COC(=O)C1=C(C)NC2=C(C(=O)CC(c3ccccc3)C2)C1c1cccc([N+](=O)[O-])c1 (stereo unspecified)	7.3
COc1ccc(CN2CCN(C(=O)c3ccccc3F)CC2)cc1OCc1ccccc1	0.4
Cc1cc(C(c2ccc(F)cc2)c2cc(C)c(NC(=O)c3ccccc3)c(C)c2)cc(C)c1NC(=O)c1ccccc1	12.4
Cc1cc(C)c(C(=O)/C=C/c2ccc(Br)cc2)c(=O)[nH]1	6.5
N#Cc1c(NC(=O)COc2ccc(Cl)cc2)oc(-c2ccccc2)c1-c1ccccc1	-17.5
CCOc1ccccc1NC(=O)c1ccc(I)cc1	10.7
Fc1ccc(Nc2nc(-c3ccncc3)nc3ccccc23)cc1F	47.8
O=C(Nc1ccccc1)c1ccccc1C(=O)N1CCCCC1	13.1
O=S(=O)(NN=Cc1cn(-c2ccccc2)nc1-c1ccco1)c1ccccc1	-6.7
CCOc1ccc2cc(S(=O)(=O)NCC3CCCO3)ccc2c1 (stereo unspecified)	-6
Cc1ccc(NC(=O)CCCOc2ccc(Cl)cc2Cl)c(Br)c1	11.6
Cc1ccc(NS(=O)(=O)c2ccc3c(c2)C(=NO)c2cc(S(=O)(=O)Nc4ccc(C)cc4)ccc2-3)cc1	8.6
O=C(NC12CC3CC(CC(C3)C1)C2)c1ccc(S(=O)(=O)N2CCOCC2)cc1	-5.3
O=C(O)CCN1C(=O)S/C(=C\c2ccccc2)C1=O	6.4
O=C(NCc1ccccc1)/C(=C\c1ccc(-c2ccccc2)o1)NC(=O)c1ccccc1	-11.9
CCCCNCCCOc1ccc(Cl)cc1	2.8
COc1ccc(C(=O)N/C(=C\c2cccc3ccccc23)C(=O)N2CCN(C)CC2)cc1OC	1.8
CSc1ccc(Cl)c(C(=O)NCC(C)c2ccccc2)c1 (stereo unspecified)	0.9
COc1cc(/C=C2/SC(=S)N(c3ccccc3)C2=O)ccc1OC(=O)c1cccs1	17.1
Cc1ccc(-c2noc(CCc3ccccc3)n2)cc1	13.4
CN1C(=O)/C(=C\c2cc(Cl)ccc2OCc2ccccc2Cl)SC1=S	10.8
Oc1ccccc1/C=N/Nc1cc(N2CCCC2)nc(N2CCCC2)n1	29.3

Structure (SMILES)	displacement [%]
CCN(CC)C(=S)NC(=O)/C=C/c1ccc(OC)c(OC)c1	1.1
COc1ccc(C(NC(=O)c2ccccc2)c2c(O)ccc3ccccc23)cc1OC (stereo unspecified)	0.8
COC(=O)c1c(NC(=O)c2ccc(OCC(C)C)cc2)sc2c1CCC2	1.7
CCOc1ccccc1CN(CCc1ccc2c(c1)OCO2)Cc1ccncc1	0.4
Cc1c(Cl)cccc1-c1ccc(C(=O)Nc2ccc3c4c(cccc24)CC3)o1	14.7
COc1ccc(C(=O)Nc2ccc(O)c(-c3nc4cc(C)c(C)cc4o3)c2)cc1[N+](=O)[O-]	-2.9
CC(C)(C)OC(=O)NC(Cc1ccccc1)C(=O)O (stereo unspecified)	3.4
COc1ccc(NC(=O)N2CCN(c3ccccn3)CC2)cc1	-5.1
O=C(c1cccs1)N1CCN(c2cccc(Cl)c2)CC1	-12
O=C1Oc2ccccc2N/C1=C/c1ccccc1	0.6
O=C(c1ccc(Cl)cc1Cl)N1CCN(c2cc(N3CCCCC3)c(F)cc2[N+](=O)[O-])CC1	-4.2
O=c1oc(-c2sc3ccccc3c2Cl)nc2ccccc12	-40.6
COc1ccc(N2C(=O)NC(=O)/C(=C/c3ccc(-c4ccc([N+](=O)[O-])cc4)o3)C2=O)cc1	46.2
O=C1CSC(=S)N1c1ccc(Cl)cc1	18.2
CCOC(=O)COc1c(Br)cc(/C=N/NC(=O)Nc2ccccc2)cc1OC	4.6
COc1cc2c(cc1OC)C(C)=NC(C)(C)C2	8.4
Cc1ccc(-n2c(C)nc(N)c2C(=O)c2ccccc2)cc1	-0.4
CCC(=O)Nc1c(C)ccc2nsnc12	-7
COc1ccc(CCN(C(C)=O)C2CC(=O)N(c3ccc(Cl)cc3)C2=O)cc1 (stereo unspecified)	-1.9
NC(=O)c1ccccc1NC(=O)Cc1ccc([N+](=O)[O-])cc1	21.3
O=C(CN(Cc1ccccc1)S(=O)(=O)c1ccccc1)N/N=C/c1ccccc1F	2.4
CCOC(=O)c1sc(C)c(C#N)c1N	6.5
COc1cc(/C=N\NC(=O)c2c(C)nc3sccn23)ccc1O	3.3
CCN1C(=O)/C(=C/c2nc3ccccc3c(=O)n2-c2cccc(OC)c2)c2ccccc21	-5.7

Structure (SMILES)	displacement [%]
COc1ccc(/C=N/c2ncn[nH]2)cc1	2.1
CCC(=O)NC(Nc1cc(C)ccn1)(C(F)(F)F)C(F)(F)F	10.6
NNC(=O)COc1ccccc1-c1ccccc1	-2.3
CN1C(=O)/C(=C/c2cccn2-c2cccc([N+](=O)[O-])c2)SC1=S	27.1
Cc1ccc(-n2[nH]c(C)c(C3SCc4cc(C)c(C)cc4CS3)c2=O)cc1	-5.3
COc1cc(/C=C2\SC(N3CCCCCC3)=NC2=O)cc(OC)c1OC	-18.7
O=C(NN1C(=O)c2ccccc2C1=O)c1ccc(Cl)c(Cl)c1	-7.2
Cc1ccc(C)c(OCc2nnc(NC(=O)c3cccs3)s2)c1	21.2
COc1ccc(/C=C2\C(=O)NC(=O)N(c3ccc(Br)c(C)c3)C2=O)cc1	-3
O=C(NCc1ccccc1)C(=O)NCc1ccncc1	-6
O=C(NCc1ccco1)N1CCOCC1	-4
COc1ccc(-c2c(C#N)c(N)nc3c2CC(C)CC3)cc1 (stereo unspecified)	-2.4
COc1ccc(NC(=O)COc2ccc(C)cc2C)cc1OC	2.4
CCOC(=O)C1(C)C=C(Nc2ccccc2)C(=O)N1c1ccccc1 (stereo unspecified)	-6
CC(=O)NC1=NN(C(C)=O)C(c2cccc(Cl)c2)S1 (stereo unspecified)	-4
O=C(Nc1ccccc1C(=O)NCCc1ccccc1)c1ccncc1	3.4
CCOc1cccc(C(=O)Nc2nnc(-c3ccccc3C)s2)c1	46.9
CC(=O)C1C(=O)CC(C)(O)C(C(C)=O)C1c1ccc(N(C)C)cc1 (stereo unspecified)	3
COc1ccc(C(NC(=O)Cc2ccccc2)c2ccc(OC)cc2)cc1	-3
COC(=O)c1c(NC(=O)C2CC2)sc2c1CCCCCC2	-13.5
CCc1cc(C(=O)N=Nc2c(O)[nH]c3ccccc23)c2ccccc2n1	-1.7
O=C(Nc1ccc(N2CCOCC2)c(Cl)c1)c1ccc(Cl)cc1[N+](=O)[O-]	-7.2
CC1CCc2c(sc(NC(=O)CC(c3ccccc3)c3ccccc3)c2C(N)=O)C1 (stereo unspecified)	10.8
